# Measurements published in PubChem BioAssay AID624296 (National Center for Advancing Translational Sciences (NCATS), 2012).
# Several values for one entry are separate records, joined by “and”; a condition that tells them apart may be missing. Equal entries are not always repeated. The campaign covered roughly 350,000 compounds. About 9,900 (2.8%) were called active. Inconclusive means that the source gave no clear call. Such entries were picked first, then a sample of the others. Calls follow the shape of the dose curve; as a rule, active = well fitted activation curve with a large enough effect; inconclusive = small, poorly fitted or top-dose-only effect; inactive = no such curve, though single readings can be large or run the other way. Potencies of inconclusive entries are doubtful fits and often do not repeat.
# Assay: A quantitative high throughput screen for small molecules that induce DNA re-replication in MCF 10a normal breast cells. Also: nearly all actives have a fitted effect of over 50% in size. As to activity, positive = re-replication: % of control where 0% means no effect.
# Conditions: MCF 10A DNA re-replication, Hoechst nuclear intensity, 48 h; activity, positive = re-replication: at 46.1 µM (top of the series)
# Potency is read from the fitted curve at half-maximal effect; tags tell the direction and shape of the fitted curve.
SMILES,"activity, positive = re-replication",Potency
O=C(NCc1cccnc1)C1CC2c3ccccc3C1c1ccccc12 (stereo not drawn),inactive: 5.6%,–
CCc1ccc2ncc(S(=O)(=O)c3ccc(C)c(C)c3)c(N3CCCC3)c2c1,–,active: 23.1 µM
CC(C)Sc1nc2ccccc2c(=O)[nH]1,inactive: 4.82%,–
CN(C(=O)c1cc(-c2ccc3c(c2)OCO3)on1)c1ccccc1,–,"inconclusive: 16.4 µM [activator, partial curve, poor fit]"
O=C(c1cccs1)N1CCC(c2nc(-c3ccc(S(=O)(=O)N4CCOCC4)cc3)no2)CC1,inactive: 17.3%,–
COc1cccc(-c2csc(N3CCN(C(=O)NC45CC6CC(CC(C6)C4)C5)CC3)n2)c1,–,"inconclusive: 2.06 µM [activator, full curve]"
O=[N+]([O-])CC(c1ccccc1)c1c[nH]c2ccccc12 (stereo not drawn),–,active: 14.6 µM
O=C(CCCSc1nnnn1-c1cccc2ccccc12)c1ccc(F)cc1,–,"inconclusive: 2.91 µM [activator, full curve, poor fit]"
COc1ccc(/C(C)=N/OCC(=O)N2CC3(C)CC2CC(C)(C)C3)cc1 (stereo not drawn),inactive: -2.91%,–
COC(=O)c1cc(NC(=O)c2c(-c3ccccc3)noc2C)ccc1N1CCOCC1,–,"inconclusive: 29.1 µM [activator, partial curve, poor fit]"
CCCNC(=O)c1ccc(N2CCC3(CC2)CC(c2cccc(Br)c2)=NO3)c(NC(=O)c2cccc(OC)c2)c1,–,"inconclusive: 3.26 µM [activator, partial curve]"
Brc1[nH]nc2ccccc12,inactive: -10.6%,–
COc1ccc(-c2cc(C(=O)N3CCN(c4ccccc4O)CC3)c3ccccc3n2)cc1OC,–,"inconclusive: 11.6 µM [activator, partial curve]"
C/C(=N\O)c1ccc2c3c([nH]c2c1)CCCC3,–,"inconclusive: 32.6 µM [activator, partial curve, poor fit]"
O=S(=O)(c1ccccc1)N1CCC(O)(CSc2ccccc2)CC1,inactive: 26.5%,–
Cc1noc(C)c1S(=O)(=O)N1CCN(c2ccc([N+](=O)[O-])cc2)CC1,inactive: -0.57%,–
CCc1c(C(=O)NNC(=S)NCC(C)C)csc1C,inactive: 2.9%,–
Cc1ccccc1/C=C1\Sc2ccc(C(=O)N3CCN(c4ccccn4)CC3)cc2N(C)C1=O,–,active: 23.1 µM
CC(=O)Oc1ccc(C2=Cc3ccc(OC(C)=O)cc3OC2C)cc1 (stereo not drawn),–,active: 4.11 µM
Cc1cnc(CN2CCc3c([nH]c4ccccc34)C2C2CCCCC2)[nH]1 (stereo not drawn),–,"inconclusive: 20 µM [activator, single point]"
CCCCn1nc(C(=O)NNC(=O)c2ccncc2)c2ccccc2c1=O,inactive: 0.452%,–
O=C(C1CCC(CNS(=O)(=O)c2cccs2)CC1)N1CCN(c2ccc(Cl)cc2)CC1 (stereo not drawn),–,"inconclusive: 4.61 µM [activator, full curve]"
CC(C)NC(=O)c1onc(CSc2ccc(F)c(F)c2)c1C(=O)NC(C)C,–,"inconclusive: 5.17 µM [activator, single point]"

SMILES,"activity, positive = re-replication",Potency
O=C(O)COc1ccc2c(c1)CCCC2,–,"inconclusive: 29.1 µM [activator, partial curve, poor fit]"
O=C(NCCc1ccccc1)C1CCC(Cn2c(=O)c3ccccc3n(Cc3cccc(Cl)c3)c2=O)CC1 (stereo not drawn),inactive: -0.778%,–
O=C(O)c1cc(N/N=C/c2cccc3ccccc23)ccc1Cl,–,active: 23.1 µM
O=C1CC(N2CCN(S(=O)(=O)c3ccccc3F)CC2)C(=O)N1c1ccccc1Cl (stereo not drawn),inactive: 4.17%,–
COc1ccccc1-n1c(-c2ccccc2)c[nH]c1=S,–,active: 5.17 µM
CCCCCCC(O)C/C=C/CCCCCCCC(=O)O (stereo not drawn),–,"inconclusive: 11.9 µM [activator, partial curve]"
COCCN(C(=O)C1=COCCO1)c1c(N)n(CC(C)C)c(=O)[nH]c1=O,inactive: -1.17%,–
O=C(CCc1ccc(O)c(O)c1)N/N=C/c1ccc2c(c1)OCO2,–,"inconclusive: 25.9 µM [activator, single point]"
COc1ccc(-c2nn(-c3ccccc3)cc2/C=C\C(=O)Nc2ccc(C(=O)O)cc2)cc1,–,"inconclusive: 23.1 µM [activator, single point]"
CC(C)(C)c1ccc(OCCC(=O)Nc2cccc(S(=O)(=O)N3CCCC3)c2)cc1,–,"inconclusive: 29.1 µM [activator, single point]"
CCn1c(SCC(=O)c2c[nH]c3ccccc23)nnc1-c1cccs1,–,"inconclusive: 8.2 µM [activator, partial curve]"
Cc1nn(-c2ccc(Cl)cc2)c2sc(C(=O)c3c(N)n(C)c(=O)n(C)c3=O)cc12,inactive: -191% [at 0.0737 µM],–
COC(=O)c1c(NC(=O)c2ccccc2)sc(C(=O)c2ccccc2)c1C,–,active: 6.51 µM
O=C1C=CC(=O)C(C2=C3C(=O)N(CCc4ccccc4)CC(=O)N3CCC2)=C1,–,active: 7.31 µM
O=C(COc1c(Cl)cccc1Cl)Nc1ccccc1N1CCCC1,–,"inconclusive: 29.1 µM [activator, partial curve, poor fit]"
Cc1cccc(C)c1OCc1cc(C(=O)N2CC3C[C@@H]4CC2C[C@H](C3)C4)no1,–,active: 18.4 µM
CC1CCCN(S(=O)(=O)c2ccc(NC(=O)C3CCN(C(=O)c4ccco4)CC3)cc2)C1 (stereo not drawn),inactive: 15.4%,–
CCOc1ccccc1N1CCN(C(=O)C(Sc2ccccc2)c2ccccc2)CC1 (stereo not drawn),–,"inconclusive: 32.6 µM [activator, partial curve, poor fit]"
N#CC(c1ccc(Cl)cc1)c1c(Cl)cc(-n2ncc(=O)[nH]c2=O)cc1Cl (stereo not drawn),–,"inconclusive: 21.1 µM [activator, partial curve]"
COc1ccccc1-c1oc2ccccc2c1-c1ccc2cc[nH]c2c1,–,"inconclusive: 23.1 µM [activator, single point]"
CCOC(=O)c1[nH]c2cc(OC)c(OC)cc2c1NC(=O)c1ccc2c(c1)OCO2,inactive: 0.271%,–
Cc1ccc2sc(N3CCN(C(=O)c4ccc([N+](=O)[O-])o4)CC3)nc2c1C,–,"inconclusive: 6.51 µM [activator, single point]"
COc1ccc(C(CNC(=O)c2ccc(S(=O)(=O)N3CCCC3)cc2)N(C)C)cc1OC (stereo not drawn),inactive: -3.97%,–

SMILES,"activity, positive = re-replication",Potency
Cc1cc(=O)oc2cc(OCC(O)CN3CCN(c4ccccc4)CC3)ccc12 (stereo not drawn),–,"inconclusive: 23.1 µM [activator, partial curve, poor fit]"
COc1ccc(-c2csc(NC(=O)c3ccc(OCC(=O)N4CCOCC4)c(OC)c3)n2)cc1,–,"inconclusive: 25.9 µM [activator, single point]"
CCOC(=O)c1ccc2nc(NC(=O)c3ccco3)sc2c1,–,active: 20.6 µM
CN(C)CCNc1nc2sc3c(c2c(=O)n1CCc1ccccc1)CCCCC3,–,"inconclusive: 25.9 µM [activator, single point]"
CCCC1(C(=O)OC)NC(c2ccc(OC)c(OC)c2)C2C(=O)N(c3cccc(C(C)=O)c3)C(=O)C21 (stereo not drawn),inactive: -1.17%,–
O=C(Nc1cccnc1)c1cccs1,–,"inconclusive: 3.26 µM [activator, full curve, poor fit]"
N#Cc1cc(C(=O)c2cc(F)ccc2O)cn(-c2nccs2)c1=O,–,"inconclusive: 29.1 µM [activator, single point]"
O=C(COc1ccccc1Cl)N1CCN(c2ccc([N+](=O)[O-])c(N3CCOCC3)c2)CC1,–,"inconclusive: 20.6 µM [activator, single point]"
CCOC(=O)c1cnc2nc(N3CCOCC3)nn2c1N,–,"inconclusive: 2.31 µM [activator, partial curve, poor fit]"
COc1cc(Cl)c(C)cc1NC(=O)CSc1nc2ccccc2o1,–,"inconclusive: 20.6 µM [activator, partial curve, poor fit]"
c1ccc2oc(-c3csc(NCC4CCCO4)n3)cc2c1 (stereo not drawn),–,"inconclusive: 32.6 µM [activator, partial curve, poor fit]"
COc1cc(/C=N\NC(=O)C(C)(C)O)ccc1OC/C=C/c1ccccc1,inactive: 3.5%,–
COc1ccc(OC(C)C(=O)N2CCN(c3ccccn3)CC2)cc1 (stereo not drawn),–,"inconclusive: 2.06 µM [activator, partial curve, poor fit]"
O=c1c2ccccc2c(/C=N/c2ncn[nH]2)c(O)n1Cc1ccccc1,–,"inconclusive: 20.6 µM [activator, partial curve, poor fit] and inconclusive: 25.9 µM [activator, single point]"
CCN1C(=O)CC(c2ccccc2)N(C2CCCC2)c2nc(Nc3ccc(C(=O)NC4CCN(C)CC4)cc3OC)ncc21 (stereo not drawn),–,"inconclusive: 23.1 µM [activator, single point]"
N#CC1=C(N)Oc2cc(N)ccc2C1c1cc(Br)cs1 (stereo not drawn),–,"inconclusive: 20.6 µM [activator, single point]"
Cc1cccc(NCc2ccc(O)c3ncccc23)c1C,–,"inconclusive: 29.1 µM [activator, single point]"
COc1cc(NC(=O)c2ccc(F)cc2)c(OC)cc1NC(=O)CN1CCCCC1,inactive: 6.12%,–
Nc1nnc(SC2CC(=O)N(c3ccccc3)C2=O)s1 (stereo not drawn),–,"inconclusive: 25.9 µM [activator, single point]"
Cc1ccc(C(=O)O/N=C/c2c(N3CCOCC3)n(C)c3ccccc23)cc1,–,"inconclusive: 29.1 µM [activator, single point]"
CCOC(=O)c1c(-c2ccc(OC)cc2)csc1/N=C/C1C(=O)CCCC1=O,–,"inconclusive: 20.6 µM [activator, single point]"
CC(C)N(C(=O)[C@H]1C[C@H](CC(=O)NCCC2=CCCCC2)C(=O)N2CCc3c([nH]c4cc(CCC(=O)N(C)C)ccc34)[C@]12C)C(C)C,–,"inconclusive: 0.58 µM [activator, full curve, poor fit]"
